Assay results: PMC9911399, “Two distinct binding modes provide the RNA-binding protein RbFox with extraordinary sequence specificity”
Substitutions are numbered along the chain they refer to; changes in the protein carry UniProt numbers. The list shows a part of the results.

T1: RBFOX1 RRM RbFoxmut (Fox-RRM*) (Homo sapiens, UniProt Q9NWB1 109-208, R118D;E147R;N151S;E152T)
T1 sequence: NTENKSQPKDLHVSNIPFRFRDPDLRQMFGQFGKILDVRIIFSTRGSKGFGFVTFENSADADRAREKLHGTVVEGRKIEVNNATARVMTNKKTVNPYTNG

B1: UCUCCUG (DNA:RNA)
RNA: GGGAGACCGGAAUUCAGAUUGUCCUCUCCUGUUAAAUCCCGUCGUAGCCACCA
DNA 1: CAATCTGAATTCCGGTCTCCC
DNA 2: TGGTGGCTACGACGGGATT
B2: GAUUGCC (DNA:RNA)
RNA: B1 RNA with U25G, C26A, C28U, C29G, U30C, G31C
DNA 1: CAATCTGAATTCCGGTCTCCC
DNA 2: TGGTGGCTACGACGGGATT
B3: AUUACCC (DNA:RNA)
RNA: B1 RNA with U25A, C26U, C28A, U30C, G31C
DNA 1: CAATCTGAATTCCGGTCTCCC
DNA 2: TGGTGGCTACGACGGGATT
B4: CCUACAU (DNA:RNA)
RNA: B1 RNA with U25C, C28A, U30A, G31U
DNA 1: CAATCTGAATTCCGGTCTCCC
DNA 2: TGGTGGCTACGACGGGATT
B5: CUUAGCA (DNA:RNA)
RNA: B1 RNA with U25C, C26U, C28A, C29G, U30C, G31A
DNA 1: CAATCTGAATTCCGGTCTCCC
DNA 2: TGGTGGCTACGACGGGATT
B6: UCAUUUG (DNA:RNA)
RNA: B1 RNA with U27A, C28U, C29U
DNA 1: CAATCTGAATTCCGGTCTCCC
DNA 2: TGGTGGCTACGACGGGATT
B7: GUUCUUA (DNA:RNA)
RNA: B1 RNA with U25G, C26U, C29U, G31A
DNA 1: CAATCTGAATTCCGGTCTCCC
DNA 2: TGGTGGCTACGACGGGATT
B8: UCCUCAU (DNA:RNA)
RNA: B1 RNA with U27C, C28U, U30A, G31U
DNA 1: CAATCTGAATTCCGGTCTCCC
DNA 2: TGGTGGCTACGACGGGATT
B9: GUUCUAC (DNA:RNA)
RNA: B1 RNA with U25G, C26U, C29U, U30A, G31C
DNA 1: CAATCTGAATTCCGGTCTCCC
DNA 2: TGGTGGCTACGACGGGATT
B10: AAGCGGG (DNA:RNA)
RNA: B1 RNA with U25A, C26A, U27G, C29G, U30G
DNA 1: CAATCTGAATTCCGGTCTCCC
DNA 2: TGGTGGCTACGACGGGATT
B11: CGUACGC (DNA:RNA)
RNA: B1 RNA with U25C, C26G, C28A, U30G, G31C
DNA 1: CAATCTGAATTCCGGTCTCCC
DNA 2: TGGTGGCTACGACGGGATT
B12: CAUCGCA (DNA:RNA)
RNA: B1 RNA with U25C, C26A, C29G, U30C, G31A
DNA 1: CAATCTGAATTCCGGTCTCCC
DNA 2: TGGTGGCTACGACGGGATT
B13: GAGGUCU (DNA:RNA)
RNA: GGGAGACCGGAAUUCAGAUUGUCCGAGGUCUUUAAAUCCCGUCGUAGCCACCA
DNA 1: CAATCTGAATTCCGGTCTCCC
DNA 2: TGGTGGCTACGACGGGATT
B14: UUUUCCA (DNA:RNA)
RNA: B1 RNA with C26U, C28U, U30C, G31A
DNA 1: CAATCTGAATTCCGGTCTCCC
DNA 2: TGGTGGCTACGACGGGATT
B15: GGCAAUG (DNA:RNA)
RNA: B1 RNA with U25G, C26G, U27C, C28A, C29A
DNA 1: CAATCTGAATTCCGGTCTCCC
DNA 2: TGGTGGCTACGACGGGATT
B16: UGAUUAA (DNA:RNA)
RNA: B13 RNA with G25U, A26G, G27A, G28U, C30A, U31A
DNA 1: CAATCTGAATTCCGGTCTCCC
DNA 2: TGGTGGCTACGACGGGATT
B17: GCUAAGC (DNA:RNA)
RNA: B1 RNA with U25G, C28A, C29A, U30G, G31C
DNA 1: CAATCTGAATTCCGGTCTCCC
DNA 2: TGGTGGCTACGACGGGATT
B18: AUAUGAC (DNA:RNA)
RNA: GGGAGACCGGAAUUCAGAUUGUCCAUAUGACUUAAAUCCCGUCGUAGCCACCA
DNA 1: CAATCTGAATTCCGGTCTCCC
DNA 2: TGGTGGCTACGACGGGATT
B19: CAUAGGU (DNA:RNA)
RNA: B13 RNA with G25C, G27U, G28A, U29G, C30G
DNA 1: CAATCTGAATTCCGGTCTCCC
DNA 2: TGGTGGCTACGACGGGATT
B20: AAGCUCU (DNA:RNA)
RNA: B13 RNA with G25A, G28C
DNA 1: CAATCTGAATTCCGGTCTCCC
DNA 2: TGGTGGCTACGACGGGATT
B21: CCUCAGG (DNA:RNA)
RNA: B1 RNA with U25C, C29A, U30G
DNA 1: CAATCTGAATTCCGGTCTCCC
DNA 2: TGGTGGCTACGACGGGATT
B22: CCUAAUU (DNA:RNA)
RNA: B1 RNA with U25C, C28A, C29A, G31U
DNA 1: CAATCTGAATTCCGGTCTCCC
DNA 2: TGGTGGCTACGACGGGATT
B23: UCAUGUA (DNA:RNA)
RNA: B18 RNA with A25U, U26C, A30U, C31A
DNA 1: CAATCTGAATTCCGGTCTCCC
DNA 2: TGGTGGCTACGACGGGATT
B24: AUAGGUU (DNA:RNA)
RNA: B18 RNA with U28G, A30U, C31U
DNA 1: CAATCTGAATTCCGGTCTCCC
DNA 2: TGGTGGCTACGACGGGATT
B25: CAGCACC (DNA:RNA)
RNA: B13 RNA with G25C, G28C, U29A, U31C
DNA 1: CAATCTGAATTCCGGTCTCCC
DNA 2: TGGTGGCTACGACGGGATT
B26: ACUAGAC (DNA:RNA)
RNA: B18 RNA with U26C, A27U, U28A
DNA 1: CAATCTGAATTCCGGTCTCCC
DNA 2: TGGTGGCTACGACGGGATT
B27: ACUGCCC (DNA:RNA)
RNA: B1 RNA with U25A, C28G, U30C, G31C
DNA 1: CAATCTGAATTCCGGTCTCCC
DNA 2: TGGTGGCTACGACGGGATT
B28: UAUUUAC (DNA:RNA)
RNA: B18 RNA with A25U, U26A, A27U, G29U
DNA 1: CAATCTGAATTCCGGTCTCCC
DNA 2: TGGTGGCTACGACGGGATT
B29: CUAAGUU (DNA:RNA)
RNA: B18 RNA with A25C, U28A, A30U, C31U
DNA 1: CAATCTGAATTCCGGTCTCCC
DNA 2: TGGTGGCTACGACGGGATT
B30: UCCAUCA (DNA:RNA)
RNA: B13 RNA with G25U, A26C, G27C, G28A, U31A
DNA 1: CAATCTGAATTCCGGTCTCCC
DNA 2: TGGTGGCTACGACGGGATT
B31: CGGAUCA (DNA:RNA)
RNA: B13 RNA with G25C, A26G, G28A, U31A
DNA 1: CAATCTGAATTCCGGTCTCCC
DNA 2: TGGTGGCTACGACGGGATT

Molecular target: T1, RBFOX1 RRM RbFoxmut (Fox-RRM*)
Experiment: EMSA; HiTS-Eq, 1 nM pool, 10 min; buffer printed only for the single-RNA assays: 10 mM Tris pH 7.5, 150 mM NaCl, 3.4 mM EDTA, 0.001% NP-40, 30 C
Conditions: tags: His6 N-terminal (pET28a); label: 5' 32P
Outline: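 Purified wild-type or mutant RbFox RRM at increasing concentrations was equilibrated with 1 nM of 5′-radiolabelled RNA carrying 7 randomized nucleotides for 10 min in 50 µL. Unbound RNA was separated by 8% native PAGE and sequenced. Relative association constants came from read-count changes of each RNA species compared with the control reaction, normalised to the cognate motif.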

Row | Binder | binding signal
1 | B1 | 0.0894 KA relative to UGCAUGU
2 | B2 | 0.179 KA relative to UGCAUGU
3 | B3 | 0.0885 KA relative to UGCAUGU
4 | B4 | 0.0881 KA relative to UGCAUGU
5 | B5 | 0.158 KA relative to UGCAUGU
6 | B6 | 0.113 KA relative to UGCAUGU
7 | B7 | 0.0868 KA relative to UGCAUGU
8 | B8 | 0.11 KA relative to UGCAUGU
9 | B9 | 0.0959 KA relative to UGCAUGU
10 | B10 | 0.0834 KA relative to UGCAUGU
11 | B11 | 0.108 KA relative to UGCAUGU
12 | B12 | 0.164 KA relative to UGCAUGU
13 | B13 | 0.101 KA relative to UGCAUGU
14 | B14 | 0.0593 KA relative to UGCAUGU
15 | B15 | 0.287 KA relative to UGCAUGU
16 | B16 | 0.0944 KA relative to UGCAUGU

Row | Binder | binding signal
17 | B17 | 0.0804 KA relative to UGCAUGU
18 | B18 | 0.131 KA relative to UGCAUGU
19 | B19 | 0.13 KA relative to UGCAUGU
20 | B20 | 0.0709 KA relative to UGCAUGU
21 | B21 | 0.107 KA relative to UGCAUGU
22 | B22 | 0.0682 KA relative to UGCAUGU
23 | B23 | 0.206 KA relative to UGCAUGU
24 | B24 | 0.106 KA relative to UGCAUGU
25 | B25 | 0.0926 KA relative to UGCAUGU
26 | B26 | 0.101 KA relative to UGCAUGU
27 | B27 | 0.0769 KA relative to UGCAUGU
28 | B28 | 0.113 KA relative to UGCAUGU
29 | B29 | 0.0884 KA relative to UGCAUGU
30 | B30 | 0.0673 KA relative to UGCAUGU
31 | B31 | 0.121 KA relative to UGCAUGU
